# Laboratory results as given in ChEMBL document CHEMBL4888484, “Replenishing the malaria drug discovery pipeline: Screening and hit evaluation of the MMV Hit Generation Library 1 (HGL1) against asexual blood stage Plasmodium falciparum ,using a nano luciferase reporter read-out” (2022).
# Hit rate of the full screen: of about 150,000 compounds, about 540 (0.36%) showed an effect of 50% or more. The list shows a part of the results.
# System: Plasmodium falciparum
# Test: Primary screen in NF54 nanoGlo assay, in single point, at 2uM, 72h; a lower Z score goes with more inhibition
# Assay type: functional, Erythrocyte
# Settings: timepoint 72 hour
Structure (SMILES),% Inhibition,Z score
O=C(CCc1nc2ccccc2[nH]1)N1C[C@@H](CO)[C@H](c2ccccn2)C1,-6%,1.19
O=C(Cc1cccc(C(F)(F)F)n1)N[C@H]1CCOC2(CCCC2)C1,-1%,0.28
COc1ccc(-c2cn(CC(=O)Nc3c(C)cccc3C)nc2N2CCOCC2)cc1,-5%,0.57
Cc1cc(CN2CCC(C)CC2)c(C)c(CN2CC(c3ccccn3)C2)c1,-5%,0.84
COC(=O)N1CCCC(C(=O)OC(c2nccn2C)C(F)(F)F)C1 (stereo not given),-2%,0.23
NC(=O)Cn1ccnc1[C@H]1CCCN(C(=O)NCCc2cccs2)C1,5%,-0.51
O=c1c2cc(Cl)ccc2ncn1C[C@H]1CCCO1,-12%,1.18
CNCCOc1ccc(Br)cc1,0%,-0.06
Cc1ccc(-c2cc(C(=O)N3CCN(c4ccccc4)C(=O)[C@@H]3C)n[nH]2)s1,-13%,1.78
NC(=O)c1csc(C(=O)NC2(c3ccccc3)CCCC2)c1,-3%,0.6
C[C@](O)(CNC(=O)c1c(F)cccc1F)c1ccc(-c2ccccc2)cc1,-8%,1.4
Cc1oc2ncn(C)c(=O)c2c1C(=O)N1CCN(c2ccccn2)CC1,-7%,1.28
O=C(Nc1ccc2oc(-c3cc(Cl)ccc3Cl)nc2c1)c1ccc2c(c1)OCCO2,-15%,1.99
CC[C@H]1CN(Cc2cccn2-c2nccs2)CCN1C,-2%,0.41
O=S(=O)(NC1(c2ccccc2Cl)CC1)N1CCCC1,-16%,3.03
CCn1nnc2c(=O)n(Cc3cccc4ccccc34)cnc21,-2%,0.28
N#Cc1c(F)cccc1NCC1(CCO)CC1,-4%,0.52
Cc1noc([C@@]23CN(C(=O)c4ccccc4)C[C@@H]2CN(C(=O)c2c(C)noc2C)C3)n1,-17%,2.26
CCC(O)CN1C(=O)CC(C)(CC(C)C)C1=O (stereo not given),-2%,0.32
O=C(Nc1ccc(-n2cnnn2)cc1)C(c1ccccc1)c1ccccc1,-5%,0.52
CCOCCC1(CNC(=O)N2CCCC2(C)C)CCC1,-18%,2.42
O=C(CC1C=CCCC1)NC1CCc2nnnn2CC1 (stereo not given),1%,-0.18

Structure (SMILES),% Inhibition,Z score
CC(C)C(=O)N1CCC([C@@H]2CN(Cc3ccccc3Cl)C[C@H]2CO)CC1,-11%,1.24
Cc1nc(C2CCOCC2)n([C@H]2CCN(S(=O)(=O)c3ccc(F)cc3F)C2)n1,-5%,0.72
CN(CC=Cc1ccc(F)cc1)CCN1CCCC1=O,-10%,1.54
Cc1cccc(-c2ncc(C(=O)N3CCN(c4ncccn4)CC3)c(O)n2)c1,-5%,1.02
CC(C)[C@H](NC(=O)c1ccccc1)c1nnn(C)n1,-8%,1
COc1ccc(CCNC(=O)c2c[nH]nc2-c2ccccc2)cc1,0%,0.03
N#CC1(NC(=O)Cc2c[nH]c3cc(Cl)ccc23)CCC1,-3%,0.55
O=C(Nc1nc(-c2ccncc2)ns1)c1cncc(F)c1,-13%,1.43
CCCc1sc(C(=O)NCCNC(=O)N(C)C)cc1CC,-12%,1.18
O=C(c1n[nH]c2c1CCC2)N(Cc1ccco1)C[C@H]1CCCO1,8%,-0.99
Cc1c(C(C)C)c(=O)n(-c2ccc(S(=O)(=O)Nc3cccc(S(=O)(=O)NC4CC4)c3)cc2)n1C,-3%,0.26
COc1cccc([C@H]2CC(=O)Nc3c(C(=O)O)cn(-c4cccc(OC)c4)c32)c1,35%,-3.94
Cc1c2c(C(F)(F)F)cc(=O)n(CCC(=O)Nc3ncc(Cl)cc3Cl)c2nn1C,31%,-4.15
CCOC1CC(N(C)C(=O)NCc2cc(C(N)=O)co2)C12CCC2 (stereo not given),-6%,0.77
CCCOC[C@H]1CCN(C(=O)c2cc3ncccn3n2)C1,-6%,0.87
Cc1cc(-c2cc(OC(C)C)nc(N)n2)[nH]n1,1%,-0.28
CC(C)C(=O)N1CCOc2ccc(CN3CCOCC3)cc2C1,-16%,1.72
Cc1cnn(CCC(=O)N2C[C@H]3CCCC(=O)N(Cc4cccc(F)c4)[C@H]3C2)c1,30%,-3.41
C=CCN(Cc1ccccc1OCC)C(=O)CCC(F)(F)F,12%,-1.54
COc1cc(C(=O)Nc2cccnc2)ccc1OCc1c(Cl)cccc1Cl,9%,-1.06
CO[C@H]1CN(C(C)C)C[C@@H]1NC(=O)N1CC(n2nc(C)cc2C)C1,-8%,1.35
CCN1[C@H](C)CN(c2nccc(C(F)(F)F)n2)C[C@@H]1C,-2%,0.23

Structure (SMILES),% Inhibition,Z score
Cc1cc(C)cc(C(=O)Nc2cccnc2N2C(=O)OC(C(F)(F)F)C2C)c1 (stereo not given),-18%,2.33
CNC(=O)CN1CCN(Cc2[nH]cnc2C)CC1,-10%,0.95
CCN1C[C@@H](C(=O)Nc2csc(N3CCCCC3)n2)CC1=O,-2%,0.4
Cc1c(-c2ccccc2)[nH]c2c(CNC(=O)[C@@H]3CNC(=O)C3)cc(Cl)cc12,-4%,0.48
CC(CC1CCC1)N[C@H](C(=O)OC(C)(C)C)C(C)C (stereo not given in full),-20%,1.71
O=C(Nc1cnn(-c2nccs2)c1)N1CCCC[C@@H]1CO,-6%,0.78
O=C(NS(=O)(=O)CCC1CCCCC1)[C@H]1C[C@@H]1C1CCC1,-5%,0.86
COc1nccnc1N1CCC[C@H](C(=O)c2ccccn2)C1,-1%,0.21
O=C(Cc1ccccc1Br)N1CC2CC1CO2 (stereo not given),-14%,1.57
COC[C@@H]1C[C@H](OC)CN1C(=O)NCC1CCCCS1(=O)=O (stereo not given in full),-11%,1.38
O=C(N[C@H]1C[C@@H]2C[C@H]1CN2C(=O)c1ccc(OC(F)(F)F)cc1)c1cccs1,-2%,0.24
CCCCn1ncc(C)c1NC(=O)Cc1cccnc1,-7%,1.39
Cc1cccc(NC(=O)c2oc(C3CC3)nc2C)c1C,-7%,1.14
C[C@@H]1CN(Cc2nnnn2CC(=O)N(C)CCC2CCOCC2)C[C@H](C)O1,-8%,1.02
Cc1ccc(Nc2[nH]nnc2C(=O)Nc2ccc3c(c2)OCCO3)cc1C,-13%,1.47
CC1CCN(Cn2c(=S)sc3ccccc32)CC1,-4%,0.63
Cc1ccc2c(O)c(C(=O)N3CCCN(c4ccccc4C#N)CC3)cnc2n1,-6%,1.19
CCOCC1CCN(C(=O)C2CCOC(c3ccccc3)O2)C1 (stereo not given),-19%,3.31
CCc1ccc(-c2cn(CCS(=O)(=O)N3CCCC3)nn2)o1,-3%,0.62
Cc1nc(C(=O)NCCc2cccnc2)c(C)n1C1CCN(S(C)(=O)=O)CC1,-16%,2.76
O=C1CCCc2[nH]c(=O)c(C(=O)N3CCC[C@H](C(F)(F)F)C3)cc21,0%,0.02
CCC(C)CN(CC(=O)N1CCc2sccc2C1COc1ccc(Cl)cc1)C(=O)Cc1ccccc1 (stereo not given),-13%,1.78

Structure (SMILES),% Inhibition,Z score
O=C1CC2(CCN(C(=O)C3CC(=O)N(c4c(F)cccc4F)C3)C2)CN1 (stereo not given),-5%,0.81
C#CCCC1(CCC(=O)N2CC(c3ccccc3)C3CCCC32)N=N1 (stereo not given),4%,-0.44
CC(C)c1noc(N2C[C@H](C(N)=O)[C@@H](C(F)(F)F)C2)n1,-3%,0.61
CCOc1ccccc1NC(=O)c1c(NCc2sccc2C)sc2c1CCCCC2,-4%,0.63
Cc1nn(CC(N)=O)c(C)c1-c1ccc(C(=O)N2CCC(F)(F)CC2)cc1,-4%,0.65
Cn1cc([C@@H]2CC(=O)Nc3c2cnn3Cc2ccccc2)cn1,2%,-0.27
O=C(NCC(=O)N1C2COCC1C2)c1cccc(F)c1,-4%,0.54
CC(C)CCn1nc(C(=O)O)c2c1CCN(C(=O)CCn1ccnc1)C2,-11%,1.02
CCCc1nc(N2CCCN(C(=O)Nc3ccccc3F)CC2)c2c(C)nn(-c3ccccc3)c2n1,-1%,0.26
COC(C)(C1CC1)C(C)Nc1nc(C)ns1 (stereo not given),-42%,4.89
Fc1cccc(-c2nc(-c3ccc4c(c3)OCO4)no2)c1,-9%,1.27
O=S(=O)(Cc1cc(Cl)cc(Cl)c1)N1CC[C@H]2CC[C@@H](C1)N2,-14%,2.02
Cc1nc(N)nc(-c2cccc(C(=O)N3CCC4(CCO4)CC3)c2)c1Cl,3%,-0.39
O=C(NC1CCOC1c1ccc(Cl)cc1)c1ccc[nH]1 (stereo not given),-11%,1.2
CCCC[C@H](NCCn1cc(C)cn1)C(N)=O,-15%,1.9
O=c1c2ccccc2cnn1Cc1cc(Cl)c2c(c1)OCCCO2,2%,-0.33
COC(=O)[C@H](COC(C)(C)C)NC(=O)OCc1ccccc1,-2%,0.27
c1ccc(Cn2nnc(C3(c4ccccc4)CCOCC3)n2)cc1,-7%,0.89
Fc1ccccc1N1CCN(C2CCN(Cc3ccncc3)CC2)CC1,20%,-2.44
